Test results taken from the supplement of paper PMC3334620.
The full ranking holds about 33,000 sequences; the median of “E-score (-0.5 to 0.5)” is about -0.054, and the highest 2% start at about 0.35. Some of the results follow.

These sequences were tested against T1, Stb5 (UniProt P38699) (assay: PBM E-score (8-mer binding enrichment) (E-score (-0.5 to 0.5)); higher = stronger / more preferred TF binding; most listed sequences are background and not binding sites). Details: protein concentration: 200 nM; construct: GST-full length.
T1 sequence: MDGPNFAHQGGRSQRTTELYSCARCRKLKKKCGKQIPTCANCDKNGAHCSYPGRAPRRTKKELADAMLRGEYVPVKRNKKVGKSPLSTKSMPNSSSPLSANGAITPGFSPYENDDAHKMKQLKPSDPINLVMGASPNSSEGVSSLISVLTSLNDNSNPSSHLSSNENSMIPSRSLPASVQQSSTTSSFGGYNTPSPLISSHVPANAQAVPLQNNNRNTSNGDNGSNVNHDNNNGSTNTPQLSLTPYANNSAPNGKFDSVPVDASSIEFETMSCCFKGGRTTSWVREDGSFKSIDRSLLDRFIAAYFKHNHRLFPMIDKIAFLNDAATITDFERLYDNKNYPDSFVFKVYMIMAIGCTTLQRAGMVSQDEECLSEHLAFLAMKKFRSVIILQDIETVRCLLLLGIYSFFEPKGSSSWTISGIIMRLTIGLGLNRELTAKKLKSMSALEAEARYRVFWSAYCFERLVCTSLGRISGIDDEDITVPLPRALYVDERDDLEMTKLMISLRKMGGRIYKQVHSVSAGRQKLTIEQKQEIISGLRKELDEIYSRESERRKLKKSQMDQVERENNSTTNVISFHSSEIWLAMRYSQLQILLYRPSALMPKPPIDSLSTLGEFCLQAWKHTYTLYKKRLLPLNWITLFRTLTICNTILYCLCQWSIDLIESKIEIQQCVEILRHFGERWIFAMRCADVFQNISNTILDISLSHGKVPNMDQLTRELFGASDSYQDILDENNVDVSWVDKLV
How it was run: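 E-scores (a modified Wilcoxon-Mann-Whitney statistic) were assigned by the Universal PBM Analysis Suite to every ungapped eight-base word pooled with its reverse complement. The input came from universal all-10-mer Agilent arrays made double-stranded by primer extension and probed with GST-tagged yeast transcription factors at about 100-200 nM. Fluorescent anti-GST detected bound protein, and masliner normalised the scans.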

Sequence	PBM E-score
AGTGCCAA	-0.29
GGATGGCC	-0.0663
CTGAGACC	0.0788
ACTGGCAC	-0.123
GATCTCAA	-0.0631
AGAGCGAA	-0.0399
GCTCATGA	-0.139
GAGGGGTA	-0.0945
CATTAGAC	-0.0617
AAGAAATC	-0.136
CGCAGGTC	-0.0205
CCCCGTGA	0.146
GAGAATAA	-0.0168
AAACTAGC	-0.0246
GGATAAAC	0.162
AACGGGCG	0.171
AATACATA	-0.0377
GGTTACAA	0.0919
AACCTGCA	-0.225
AAAGCACA	-0.218
TGCATCAA	-0.147
GGCGCATA	0.149
ATATAAAG	-0.0862
CATGAGAC	-0.0283

Sequence	PBM E-score
CTCTGAAG	-0.182
CAAGACCG	0.312
ACTGCCTC	-0.165
TGGCCTAA	-0.214
AACCGTCT	0.0096
ATCATCCA	-0.198
AAAACGTC	-0.179
CACATCGC	-0.138
TATGTACA	-0.21
GATAGTAA	0.0825
GTCAAAAC	0.236
AGGCCCGC	0.36
AAAGCCAC	-0.1
CCCACTAG	-0.117
GTGAGCTA	-0.357
TAGAAGAA	-0.0144
AGTTTTAT	-0.00831
CCGAAGTA	0.145
CGCCATAC	0.0836
CAAATAAC	0.119
AATCAACT	-0.043
CGTTCTTA	0.135
CAATGCCA	-0.302
ACATCGCC	0.21

Sequence	PBM E-score
AACCATTC	-0.0229
TGGCATAA	-0.199
CGACATAG	-0.141
GGGGCGAC	-0.0307
CGTACGCA	-0.0495
TCCTGCAA	-0.17
CTGGAGAC	-0.149
TGACTGCA	-0.31
AAAAATTG	-0.0477
AAAGGACG	-0.117
TATCTAAA	-0.014
AGATTGTA	-0.0889
AAAAAGCC	0.302
ATGGGGAG	-0.347
GGTTTCGA	0.0545
CCGGTAAG	0.236
TAACGCGA	-0.0498
GCGCTCTA	0.00012
GATCGCGA	-0.0319
TGACGAAA	-0.149
CTGTACAA	-0.115
TACGGAGA	0.198
GTAGGTGA	0.0842
CGTAAGCC	0.0188

Sequence	PBM E-score
TCAGATGA	-0.124
AGTAATAG	-0.23
AGGGGCCA	-0.19
CGATGGCC	0.0541
CTCGACTA	-0.186
CAGGGCAC	0.00217
GCAGTACC	0.00183
ATCTGTAG	-0.118
GCCACAGC	-0.304
TACACGGA	0.114
AAGCGACG	0.0896
AACTCAAA	-0.125
GCTCGTAA	-0.138
GCCACTAA	-0.147
ACTCGGCA	0.00054
GCACACAA	-0.107
AAGTGTCA	-0.203
CAAATGTG	0.0201
AAGTGAAC	-0.129
AGGGAGAT	-0.331
ACAAAAGC	0.0644
GTGCTCCA	-0.24
